From the supplement of paper PMC12632987
Whole data set: some 1,800 sequences, median “median log2 fold change of GCK-ALFA target abundance (FLAG IP / Myc IP barcode read proportion)” near 0.14, cut for the lowest 2% near -0.84. Some of the results follow.

T1: TRAF2, Q12933
T1 chain: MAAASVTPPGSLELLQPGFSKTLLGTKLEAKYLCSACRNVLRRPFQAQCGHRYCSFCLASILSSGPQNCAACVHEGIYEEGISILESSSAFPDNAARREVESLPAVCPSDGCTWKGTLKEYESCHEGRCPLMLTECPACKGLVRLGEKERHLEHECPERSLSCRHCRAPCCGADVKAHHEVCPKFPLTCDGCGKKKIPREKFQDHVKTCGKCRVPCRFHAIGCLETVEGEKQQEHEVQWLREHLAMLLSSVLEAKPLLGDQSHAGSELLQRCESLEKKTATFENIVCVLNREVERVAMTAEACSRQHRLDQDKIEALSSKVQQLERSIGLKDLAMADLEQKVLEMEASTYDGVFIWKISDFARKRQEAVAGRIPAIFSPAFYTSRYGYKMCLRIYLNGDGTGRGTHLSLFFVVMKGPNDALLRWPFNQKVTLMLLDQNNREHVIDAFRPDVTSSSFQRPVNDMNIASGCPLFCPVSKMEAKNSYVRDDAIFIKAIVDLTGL

B1: traf2_out_11_169_871 (protein)
chain: KEAEFNRKLNDKALELNDKAKAELRAFAKELAKELGLDVAEVDAIFDAHKNSSLSAVAAALIAWFESKGEADAAAKILAKYEELKDEINKETSKFLKELE
B2: traf2_out_18_3_1902 (protein)
chain: KEEERKKLSDEIDKIVDEATAYARAVLDRLAAAHPEVAARLARLRADLEAGGGAFGILEALAELARELGEEELAEEIEEFIRKKRKEFQELVDKYEELIK
B3: traf2_out_18_167_1871 (protein)
chain: SEEMKKEYEELTDKLVYYSTVRRALLEILEALERSREEARALLEEKVAELPDSEVLKEALEVFETKSDEEFRAFLTSKAEELQKKANEAYKKLEELKKKM
B4: traf2_out_15_180_1327 (protein)
chain: MTEEELEKRIELANKVADAVQDKLAALLAAHPDLSEEEKAALRALARSLTTLLMNGEEEEAAAALAAAKARLSPRAAAVADELAAFAREVVAAAKKELAE
B5: traf2_out_3_89_2289 (protein)
chain: EEERERKIEEARERARRYVRGFRKNAERVAKEMLAEGMSLDTLRGVLEAARTAIVEVFRETLEEEGIDEETREELLEELDRELQAIVDEVVAAAEAARAA
B6: traf2_out_20_3_2103 (protein)
chain: KELEEELKKALEKAKKLLEEAAKLADKETAKKLEKLKKKVEASEELDYSDRLVELSEVRREVLKLAQEAKKAGKEKLAKVLEEAADALNKAMNLLMKIIE
B7: traf2_out_13_95_1222 (protein)
chain: SKEANEKLRKVSNDMLDKSEAVIDELEEKLAPYPETQPAMDEIRHAFNNGGIHAAIHKLREAAEKFPEVKELFEEAIEKLEAIRKEAGKEVAKIDKEDEE
B8: traf2_out_9_108_2597 (protein)
chain: MSREELADEIFEEVVGTVEEKVPEFKLSEEERENIRRTLLRIVRLSDISDRTTIRSITASLVLLSARDLSDETLEKIAEVLKEIDPSTKSTVDRTLSLLK
B9: traf2_out_13_95_1189 (protein)
chain: EEEKRKKYKEVTNAIADDLLAHADAQIAAITAATGDPALGAELRRVLNRYGVRALIHRIRELAAARPEHKALYDAAAADLEAKRREAGKRVAEAEKAIEA
B10: traf2_out_18_167_1846 (protein)
chain: EEEIEKQKRELSDRLVELSEVKRAARLTLQALETDPSKVPETLKKLEEEAKSIPELQPLVEKAKKALEAGDREGLRKTLEELIEKAQELMNEVLKEYEAL
B11: traf2_out_17_162_1505 (protein)
chain: SETKEKLEKLQKELEKLKKELEKLKKKLPKLKEMSKEELTDLLVEVSELKRRARELAEELKKLAKETGSEEAKKLLKEAEKLAEEAQRIANEVYKELEAK
B12: traf2_out_17_162_1627 (protein)
chain: SALAAERAAAEAELAALRAKLKELEEKAKRIDELSKEELTDLLVEASEARRRARELAERLRAWRAEHDDPALDTLIDEAEAVAEEFQRLANLFYKKLLEK
B13: traf2_out_16_104_1394 (protein)
chain: MEERKREFEEIIRRYEEIAERAGRLANELYKLYLKADPERKTALSDAMVEASELRREALLAAQEAREALETGGDLEEQRKRLEELEKRLEELEARVKELK
B14: traf2_out_18_117_1788 (protein)
chain: AEREALIAELEAIAARTGAAASKLGKLVLENWEKLTPEEKSEAFDVLADLSEVRREAQLLIHRITEEDLPVEEARAELARLRERADAALAAAEAKIKKIE
B15: traf2_out_13_95_1144 (protein)
chain: SKEVAEKINAIADEMLEKKDEILDKLEEELKKKGKLTPELEKALEEAKNSSISTAIHILKELSKKYPEIKEELDKAIEELEEIRREAGRRVAEILKEEEE
B16: traf2_out_15_180_1314 (protein)
chain: MTEEELKAKIDAANELADEVDDRLKALLAANPELTPEERQALRAASRSLLTLLFNGEEEDAAAALERVAAQLSPKAAALLRELYEWIKKKVAEIKKKLAA
B17: traf2_out_16_104_1413 (protein)
chain: AAAADAEFAAAIARLEKIADEANRLANEIYKLMEKASPEEKKKLSDLLVKASELRREALQAAQAIKAARAAGGDPAEAKATVKELEEKLKELKKELEKLK
B18: traf2_out_17_162_1483 (protein)
chain: AELEARLAALEARLEALEKELEELKKELEKLKEKSKEELTDLLVRASEARREALALAEEIRSLEPEIGAERAGALRDRALAIAEEFQRIANKIYKELEKK
B19: traf2_out_11_155_730 (protein)
chain: DAARAAQNAIVDFNLEVGDELAKEVEAIIEEIEKKDPEVAKELRKIFEKHKKYSYTSAARAVIDLLREKGYEEEAEKLEKALEEAQKRMSRKNQEIEAAL

Target: T1, TRAF2, Q12933
Experiment: median log2 fold change of GCK-ALFA target abundance (FLAG IP / Myc IP barcode read proportion) (log2 ratio); each designed protein is fused to an ALFA-tag nanobody in HEK293 cells to bring the named protein to FLAG-tagged glucokinase (GCK); Myc marks an untargeted standard; higher = target protein stabilised (more abundant)
Conditions: target protein: 3xFLAG-MCP-GCK-ALFA reporter; HEK293 landing pad (RPLP)
How it was run: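 An ALFA-nanobody-fused binder library was recombined into HEK293 landing-pad cells and induced with 2 μg mL^−1 doxycycline. Cells were transfected with a plasmid expressing a FLAG-tagged target and a Myc-tagged standard. After 48 h, lysates underwent anti-FLAG and anti-Myc immunoprecipitation, and circular RNA barcodes were reverse transcribed, amplified and sequenced. Target abundance is the per-binder median log2 ratio of FLAG to Myc barcode read proportions. Barcodes needed ≥10^−7 proportion in both replicates, binders ≥3 barcodes per replicate, and a 10^−6 pseudocount was added; the two replicates were pooled.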

Binder | median log2 fold change
B1 | 0.0612
B2 | 0.271
B3 | 0.272
B4 | 0.281
B5 | -0.809
B6 | 0.103
B7 | 0.236
B8 | -0.619
B9 | -0.147
B10 | 0.318
B11 | -0.133
B12 | 0.326
B13 | 0.194
B14 | 0.0185
B15 | -0.545
B16 | 0.309
B17 | 0.0972
B18 | 0.389
B19 | 0.541
